Measurements taken from publication PMC5849085 (Immunity, 2017).

How the values were obtained:
[1] = molecular target: T1, human IL-1RAcP (residues 1-350) fused to human IgG1-Fc (human, UniProt Q9NPH3 21-350); assay: SPR
T1 sequence (looked up): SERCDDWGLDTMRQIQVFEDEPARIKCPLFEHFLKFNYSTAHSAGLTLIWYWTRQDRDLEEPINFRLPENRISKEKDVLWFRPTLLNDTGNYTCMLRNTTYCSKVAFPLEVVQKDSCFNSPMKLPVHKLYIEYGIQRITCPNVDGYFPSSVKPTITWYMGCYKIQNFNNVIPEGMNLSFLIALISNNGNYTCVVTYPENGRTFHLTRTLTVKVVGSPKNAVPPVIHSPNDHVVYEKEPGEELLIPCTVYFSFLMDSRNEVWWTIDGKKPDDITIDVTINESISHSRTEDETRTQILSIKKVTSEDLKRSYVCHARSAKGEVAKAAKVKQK

[2] = molecular target: T2, human IL-1RAcP (residues 1-350) (human, UniProt Q9NPH3 21-350); assay: HDX-MS
T2 sequence (looked up): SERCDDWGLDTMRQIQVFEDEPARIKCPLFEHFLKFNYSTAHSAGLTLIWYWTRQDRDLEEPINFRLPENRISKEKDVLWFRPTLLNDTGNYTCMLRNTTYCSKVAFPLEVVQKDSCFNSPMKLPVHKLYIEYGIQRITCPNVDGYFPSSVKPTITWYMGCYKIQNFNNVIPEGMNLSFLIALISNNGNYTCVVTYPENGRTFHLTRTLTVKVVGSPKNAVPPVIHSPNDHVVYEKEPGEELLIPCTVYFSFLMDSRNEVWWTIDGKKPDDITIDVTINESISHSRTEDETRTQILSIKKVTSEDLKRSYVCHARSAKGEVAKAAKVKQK

B1: human IL-1β:IL-1RI binary complex (complex)
chain 1: [… about 150 residues …]
chain 2: LEADKCKEREEKIILVSSANEIDVRPCPLNPNEHKGTITWYKDDSKTPVSTEQASRIHQHKEKLWFVPAKVEDSGHYYCVVRNSSYCLRIKISAKFVENEPNLCYNAQAIFKQKLPVAGDGGLVCPYMEFFKNENNELPKLQWYKDCKPLLLDNIHFSGVKDRLIVMNVAEKHRGNYTCHASYTYLGKQYPITRVIEFITLEENKPTRPVIVSPANETMEVDLGSQIQLICNVTGQLSDIAYWKWNGSVIDEDDPVLGEDYYSVENPANKRRSTLITVLNISEIESRFYKHPFTCFAKNTHGIDAAYIQLIYPVTNFQK
half-life of the ternary complex [1]: 43 min | half-life of the ternary complex (EX1 kinetics of IL-1RAcP(150-156)) [2]: > 30 min
